# Test results: PubChem BioAssay AID686978 (National Center for Advancing Translational Sciences (NCATS), 2013)
# Where “and” joins values, the source holds several entries; their conditions need not be identical. Equal entries are not always repeated. Screen size: about 420,000 compounds; about 64,000 (15%) were called active. This list was built around the results that the source calls inconclusive (neither active nor inactive); the mix of calls is not that of the screen. The call rests on the fitted dose curve; in most records, active means well fitted inhibition curve with a large enough effect; inconclusive means small, poorly fitted or top-dose-only effect; inactive means flat fitted curve, though single readings scatter. Potencies of inconclusive entries are left out as doubtful fits.
# Assay: qHTS for Inhibitors of human tyrosyl-DNA phosphodiesterase 1 (TDP1): qHTS in cells in absence of CPT; further: nearly all actives have a fitted effect of over 55% in size
# Details: DT40 Tdp1-/- hTDP1 cells, no CPT, ATP luminescence, 48 h; activity change, negative = growth inhibition: at 46.2 µM (top of the series) unless noted
# Summary of the method: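 Stably hTDP1-transfected Tdp1-null chicken DT40 cells were treated with library compounds minus camptothecin and grown for at least 48 hr at 37 °C, after which cellular ATP was quantified by luminescence.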
# On the % scale 0 is the no-effect control and ±100 the full control effect; potency means the concentration at half of the fitted maximal effect; tags describe the fitted curve by direction and shape.
SMILES,Potency,"activity change, negative = growth inhibition"
Cc1cccc(CN2CCN(CC(=O)NCc3ccc(Cl)cc3)C2=O)c1,"inconclusive [inhibitor, single point]",
COc1ccc(C2=C(C)C(=O)N(Cc3ccc(C(=O)NCc4ccc(C)cc4)cc3)S2(=O)=O)cc1,,inactive: -5.72%
CCCCN1C(=O)/C(=C/C=C2/CC(C)(C)CN2C)SC1=S,"inconclusive [inhibitor, single point]",
COc1ccc(OC)c(NC2=NC3(CCCCC3)N=C(N)N2)c1,,inactive: -7.86%
Cc1sc(NC(=O)c2ccccc2)c(C(c2ccccn2)N2CCN(CCO)CC2)c1C (stereo not given),active: 9.2 µM,
NS(=O)(=O)c1ccc(CCNC(=O)c2ccc(Cl)cc2[N+](=O)[O-])cc1,,inactive: -6.5%
Cc1ccc(C2=NN3C(C(=O)c4ccccc4)Oc4ccccc4C3C2)cc1 (stereo not given),"inconclusive [inhibitor, single point]",
COc1ccc(C(=O)C2CCCN(Cc3cn(C)nc3-c3ccccc3)C2)cc1F (stereo not given),active: 25.9 µM,
COc1ccc(NC(=O)c2ccc(S(=O)(=O)N3CCCCC3)cc2)cc1OC,"inconclusive [inhibitor, partial curve]",
CC(C)Cc1nc2cc(NS(=O)(=O)N(C)C)cc(C(=O)N3CC4(C)CC3CC(C)(C)C4)c2n1C (stereo not given),"inconclusive [inhibitor, single point]",
COC(=O)c1c(NC(=O)CN2CCCc3ccccc32)sc(C)c1C,"inconclusive [inhibitor, single point]",
CC(Oc1cccc(Cl)c1)C(=O)Nc1cc(Cl)ccc1N1CCOCC1 (stereo not given),"inconclusive [inhibitor, single point]",
CCOC(=O)Cc1csc(NC(=O)c2ccc(C)cc2)n1,"inconclusive [inhibitor, single point]",
c1ccc(-c2ncc(CSc3nncn3-c3ccccc3)s2)cc1,active: 18.4 µM,
CCCCOC(=O)C1=C(C)Nc2nnnn2C1c1ccccc1Cl (stereo not given),active: 13 µM,
O=C(N/N=C/C=C/c1ccccc1[N+](=O)[O-])c1cc(-c2ccccc2)n[nH]1,active: 14.6 µM,
CCC(=O)Oc1ccc(/C(CC)=C(\CC)c2ccc(OC(=O)CC)cc2)cc1,"inconclusive [inhibitor, single point]",
Cc1ccc(C(C(=O)NC2CCCCC2)N(C(=O)Cc2c[nH]c3ccccc23)c2ccccc2)o1 (stereo not given),"inconclusive [inhibitor, single point]",
CN1CCN(S(=O)(=O)c2ccc(NC(=S)NC(=O)C(C)(C)C)cc2)CC1,"inconclusive [inhibitor, single point]",
CCOC(=O)COc1ccccc1C1Nc2ccccc2C(=O)N1c1cccc(Cl)c1 (stereo not given),"inconclusive [inhibitor, partial curve, poor fit]",
CCOC(=O)N1CCN(C(=O)c2ccc(N(C)S(C)(=O)=O)cc2)CC1,"inconclusive [inhibitor, full curve, poor fit]",
COc1ccc(CN2C3CCCC2CC(NC(=O)Nc2cccc(C)c2)C3)cc1 (stereo not given),"inconclusive [inhibitor, single point]",
CCc1nc2ccc(C(=O)N(C)Cc3ccco3)cn2c1N(C)Cc1ccc(OC)cc1,"inconclusive [inhibitor, single point]",

SMILES,Potency,"activity change, negative = growth inhibition"
COc1ccc(-c2n[nH]c(C)c2-c2ccc(OC)c(OC)c2)c(O)c1,"inconclusive [inhibitor, single point]",
COc1ccccc1-c1cnc(C(O)c2ccccc2)[nH]1 (stereo not given),"inconclusive [inhibitor, full curve, poor fit]",
Cc1cc(C)n(C(C)CNC(=O)c2ccc3c(c2)OCO3)n1 (stereo not given),,inactive: -5.09%
COc1cccc(C2=NOC(C(=O)Nc3cc(C)on3)C2)c1OC (stereo not given),,inactive: 5.16%
CC1(C)CC(=O)C(CO)=C(c2cccc3ccccc23)C1=O,,inactive: -14.9%
CS(=O)(=O)c1ccc(C(=O)OCC(=O)N2CCc3ccccc32)cc1[N+](=O)[O-],active: 3.98 µM,
CC1(C)CC(=O)N(c2cccc(C(F)(F)F)c2)C(=O)C1,,inactive: 9.58%
Cc1[nH]n(-c2ccccc2)c(=O)c1CCOC(=O)c1ccc(C(F)(F)F)cc1,"inconclusive [inhibitor, partial curve]",
CCOC(=O)NCc1ccc(S(=O)(=O)Nc2ccccc2C)cc1,"inconclusive [inhibitor, single point]",
NS(=O)(=O)c1ccc(NC(=O)COC(=O)c2cc(Cl)ccc2[N+](=O)[O-])cc1,,inactive: -8.59%
Cc1ccc(C)n1-n1cnc2sc3c(c2c1=O)CCC3,"inconclusive [inhibitor, single point]",
Cc1ccc2nc(SC(C)C(=O)NC3CCCc4ccccc43)[nH]c2c1 (stereo not given),"inconclusive [inhibitor, single point]",
O=C(NCCc1ccccc1)c1ccc2c(c1)N(Cc1ccccc1F)C(=O)c1ccccc1S2=O (stereo not given),"inconclusive [inhibitor, single point]",
C=CCOc1ccc(/C=N/n2cncn2)cc1OC,,inactive: -10.4%
CC12CCC(=O)N1C(C(=O)Nc1nc(-c3cc(F)ccc3F)cs1)CS2 (stereo not given),"inconclusive [inhibitor, partial curve]",
COc1ccccc1NC(=O)c1cc(S(=O)(=O)N2CCCCCC2)ccc1F,"inconclusive [inhibitor, single point]",
COc1cc(OC)cc(-c2nnc(SCc3ccc(C(=O)O)cc3)o2)c1,,inactive: -1.53%
O=c1[nH]c(O)c(/C=C2\C=Nc3ccc(Br)cc32)[nH]1,,inactive: -8.95%
O=c1c(N2CCc3ccccc3C2)csc2ccccc12,"inconclusive [inhibitor, single point]",
Cn1cccc1C(=O)OCC(=O)N1CCN(c2ccccc2)CC1,"inconclusive [inhibitor, single point]",
CCOc1ccc(-c2nc3c(c(SCC(=O)N4CCCCC4)n2)Cc2ccccc2O3)cc1,,inactive: -10.4%
COc1cc(NC(=O)c2cnc(N)s2)cc(C(=O)Nc2cccc(C(F)(F)F)c2)c1,active: 23.1 µM and active: 18.4 µM,
